# Test results reported in the supplement of paper PMC9135407.
# Several values for one entry are separate records, joined by “and”; a condition that tells them apart may be missing. Equal entries are not always repeated. Structures can show the parent of a compound that is named as a salt. Screen size: about 5,800 compounds; about 620 (11%) showed activity.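 How the source made its calls: active = score above a cut-off or among the top three wells of a plate; in these data no inactive exceeds 0.85.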 This is a selection; strong and weak results do not stand in their true shares.
# Test system: primary human hepatic stellate cells (donor 1)
# Assay: scaled lipid accumulation score (0 = DMSO-like, 1 = nortriptyline-like); higher = stronger HSC inactivation (lipid re-accumulation), active = hit call of the paper
# Conditions: 48 h
# Protocol: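 Primary lipid accumulation screen in primary human hepatic stellate cell myofibroblasts (donor 1, passage 8) in 384-well plates. 100 nL of library compound was pin-transferred into 30 µL medium in duplicate, and cells were treated for 48 h. The 'Scaled' score combines distance from plate baseline, toxicity and reproducibility penalties, and is normalised to nortriptyline (positive) and DMSO (negative) controls on each plate. A hit is defined as scaled >0.85 or among the top 3 wells per plate.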
# [1] = library stock concentration: 10 mM
# [2] = library stock concentration: 80 uM
# [3] = library stock concentration: 400 uM
# [4] = library stock concentration: 2 mM
# [5] = library stock concentration: 3.33 mM
# [6] = library stock concentration: 1 mM
# [7] = library stock concentration: 100 uM
smiles,measurement,setting,value
OC[C@@H](O)[C@@H](O[C@@H]1O[C@H](CO)[C@H](O)[C@H](O)[C@H]1O)[C@H](O)[C@@H](O)CO,scaled lipid accumulation score,[1],inactive: ≤ 0
Cn1cc(-c2ccc3nnc(C(F)(F)c4ccc5ncccc5c4)n3n2)cn1,scaled lipid accumulation score,[2],inactive: ≤ -0.009
same,scaled lipid accumulation score,[3],inactive: ≤ -0.009 and inactive: ≤ -0.005
same,scaled lipid accumulation score,[4],inactive: 0.006 and inactive: ≤ -0.005
same,scaled lipid accumulation score,[5],inactive: ≤ 0
same,scaled lipid accumulation score,[1],inactive: ≤ 0 and inactive: 0.023 and inactive: ≤ -0.005
c1ccc2[nH]c(-c3cscn3)nc2c1 [Tiabendazole],scaled lipid accumulation score,,inactive: ≤ 0
c1ccc2[nH]c(-c3cscn3)nc2c1 [Thiabendazole],scaled lipid accumulation score,[5],inactive: 0.054
same,scaled lipid accumulation score,library stock concentration: 9.9 mM,inactive: ≤ 0
same,scaled lipid accumulation score,[1],inactive: ≤ 0
c1ccc2[nH]c(-c3cscn3)nc2c1,scaled lipid accumulation score,[1],inactive: ≤ 0
CCC(CC)CC1(C(=O)Nc2ccccc2SC(=O)C(C)C)CCCCC1,scaled lipid accumulation score,[5],inactive: ≤ 0
same,scaled lipid accumulation score,[1],inactive: ≤ 0
CCCCCCCCCCCC1N[C@H](C(=O)O)CS1 (some centres not stated),scaled lipid accumulation score,[6],inactive: ≤ 0
CC(CN(C)C)CN1c2ccccc2CCc2ccccc21.O=C(O)/C=C\C(=O)O (configuration not stated) [Trimipramine maleate],scaled lipid accumulation score,[1],active: 0.877
CSc1nc(N)c2ncn([C@@H]3O[C@H](COP(=O)(O)OP(=O)(O)OP(=O)(O)O)[C@H](O)C3O)c2n1 (some centres not stated) [2-Methylthioadenosine triphosphate tetrasodium],scaled lipid accumulation score,[1],inactive: ≤ 0
"CC(=O)C(C)=O [2,3-Butanedione]",scaled lipid accumulation score,[1],inactive: 0.008
CCCC[C@H](C)C[C@H](O)/C=C/[C@H]1[C@H](O)CC(=O)[C@@H]1CCCCC(CC(=O)O)OC (some centres not stated) [3-methoxy Limaprost],scaled lipid accumulation score,[6],inactive: 0.012
CC1CS(=O)(=O)CCN1/N=C/c1ccc([N+](=O)[O-])o1 (configuration not stated) [Nifurtimox],scaled lipid accumulation score,,inactive: ≤ 0
CCCCC/C=C\CC1OC1C/C=C\C/C=C\CCCC(=O)O (configuration not stated),scaled lipid accumulation score,[7],inactive: ≤ -0.021
CC1(C)[C@H]2CC[C@]1(CS(=O)(=O)O)C(=O)C2=Cc1ccc(C=C2C(=O)[C@@]3(CS(=O)(=O)O)CC[C@@H]2C3(C)C)cc1,scaled lipid accumulation score,[1],inactive: ≤ 0
CCOC(=O)c1ncc2[nH]c3cccc(OC(C)C)c3c2c1C,scaled lipid accumulation score,[1],inactive: 0.014
COC1=C2C[C@@H](C)C[C@H](OC)[C@H](O)[C@@H](C)/C=C(\C)[C@H](OC(N)=O)[C@@H](OC)/C=C\C=C(/C)C(=O)NC(=CC1=O)C2=O [Geldanamycin],scaled lipid accumulation score,[5],inactive: 0.54
same,scaled lipid accumulation score,library stock concentration: 8.9 mM,inactive: 0.573
same,scaled lipid accumulation score,[1],inactive: 0.493
NC(=O)NC(=O)Cc1ccccc1 [Phenacemide],scaled lipid accumulation score,[1],inactive: ≤ 0
COc1ccc(C(=O)c2ccc(C)cc2)c(O)c1,scaled lipid accumulation score,[1],inactive: ≤ 0
COc1ccc(-c2cc(=O)c3c(O)cc(O[C@@H]4O[C@H](CO[C@@H]5O[C@@H](C)[C@H](O)[C@@H](O)[C@H]5O)[C@@H](O)[C@H](O)[C@H]4O)cc3o2)cc1O [Diosmin],scaled lipid accumulation score,[5],inactive: ≤ 0
same,scaled lipid accumulation score,[1],inactive: ≤ 0 and inactive: 0.011
COc1cc(Nc2ncc(F)c(Nc3ccc4c(n3)N(COP(=O)(O)O)C(=O)C(C)(C)O4)n2)cc(OC)c1OC [Fostamatinib (R788)],scaled lipid accumulation score,[5],inactive: 0.198
CN(C)CCC(c1ccc(Cl)cc1)c1ccccn1.O=C(O)/C=C\C(=O)O (configuration not stated),scaled lipid accumulation score,[1],active: 0.891
CCCCCCCC/C=C\CCCCCCCCCCCCCC(=O)N[C@@H](CO)[C@H](O)/C=C/CCCCCCCCCCCCC [Nervonic Ceramide],scaled lipid accumulation score,[6],inactive: 0.002
CN(C)CCC=C1c2ccccc2CCc2ccccc21.Cl [Amitriptyline HCl],scaled lipid accumulation score,[1],active: 0.863
"N#Cc1cc([N+](=O)[O-])c2sc(C(N)=O)[n+]([O-])c2c1 [Polo-like Kinase Inhibitor II, BTO-1]",scaled lipid accumulation score,[5],inactive: ≤ 0
O=C(Nc1ccc2c(c1)CCN(Cc1ncn[nH]1)C2)c1ccccc1-c1ccc(C(F)(F)F)cc1,scaled lipid accumulation score,[1],inactive: ≤ 0
Cn1c(=O)cc(N2CCC[C@@H](N)C2)n(Cc2ccccc2C#N)c1=O [Alogliptin],scaled lipid accumulation score,[5],inactive: ≤ 0
same,scaled lipid accumulation score,[1],inactive: ≤ 0
Cc1ccc(NC(=O)C(C)C)cc1C1CCN(Cc2ccc(Oc3ccc(F)c(F)c3)cc2)CC1.Cl,scaled lipid accumulation score,[1],active: 1.29
CCCCCCCN(CC)CCCC(O)c1ccc(NS(C)(=O)=O)cc1 (configuration not stated) [Ibutilide Fumarate],scaled lipid accumulation score,[5],inactive: 0.058
same,scaled lipid accumulation score,[1],inactive: 0.25
O=C(O)CCC(=O)Nc1ccc(S(=O)(=O)Nc2nccs2)cc1 [Succinylsulfathiazole],scaled lipid accumulation score,,inactive: ≤ 0
same,scaled lipid accumulation score,[1],inactive: ≤ 0
O=C(O)CCn1c2c(c3ccccc31)C[C@H](NS(=O)(=O)c1ccc(F)cc1)CC2,scaled lipid accumulation score,[6],inactive: ≤ 0
COc1cnc(NS(=O)(=O)c2ccc(N)cc2)nc1 [Sulfameter],scaled lipid accumulation score,,inactive: ≤ 0
same,scaled lipid accumulation score,[5],inactive: ≤ 0
same,scaled lipid accumulation score,library stock concentration: 7.1 mM,inactive: ≤ 0
same,scaled lipid accumulation score,[1],inactive: 0.067 and inactive: ≤ 0
Cc1cccc(CN2CCN(C(c3ccccc3)c3ccc(Cl)cc3)CC2)c1 (configuration not stated) [Meclizine hydrochloride],scaled lipid accumulation score,[1],inactive: 0.376 and inactive: 0.485
Cc1cccc(CN2CCN(C(c3ccccc3)c3ccc(Cl)cc3)CC2)c1 (configuration not stated) [Meclozine dihydrochloride],scaled lipid accumulation score,,inactive: 0.368
Cn1cnnc1Sc1c([N+](=O)[O-])ncn1C,scaled lipid accumulation score,[1],inactive: 0.013
CNCCC(Oc1ccccc1OC)c1ccccc1 (configuration not stated) [Nisoxetine hydrochloride],scaled lipid accumulation score,,inactive: 0.246
same,scaled lipid accumulation score,[1],inactive: 0.751 and inactive: 0.328
COc1ccccc1O [Guaiacol],scaled lipid accumulation score,library stock concentration: 16.1 mM,inactive: ≤ -0.006
CCCC1([C@H](O)C/C=C/[C@H]2[C@H](O)CC(=O)[C@@H]2CCCCCCC(=O)OC)CCC1 [Butaprost],scaled lipid accumulation score,[6],inactive: ≤ 0
CC1CNCCN1S(=O)(=O)c1cccc2cnccc12 (configuration not stated),scaled lipid accumulation score,[1],inactive: 0.081
COc1cc(CCC(C)=O)ccc1O [Vanillylacetone],scaled lipid accumulation score,[5],inactive: ≤ 0
same,scaled lipid accumulation score,[1],inactive: ≤ 0
CC12CC3CC(C)(C1)CC(N)(C3)C2.Cl [Memantine hydrochloride],scaled lipid accumulation score,[1],active: 1.05
CC(=O)OCC(=O)[C@@]1(O)CC[C@H]2[C@@H]3C[C@H](C)C4=CC(=O)C=C[C@]4(C)[C@H]3[C@@H](O)C[C@@]21C,scaled lipid accumulation score,[1],inactive: ≤ 0
Cl.O=S(=O)(c1cccc2c(Cl)cccc12)N1CCCNCC1 [ML 9 hydrochloride],scaled lipid accumulation score,[1],active: 0.941
CCCCCCCCCCCCCCCNC(=O)C1CCCCC1 [N-Cyclohexanecarbonylpentadecylamine],scaled lipid accumulation score,[6],inactive: ≤ 0
CC1CN(S(=O)(=O)c2cccc3cnccc23)CCN1 (configuration not stated),scaled lipid accumulation score,[1],inactive: 0.164
CCOC(=O)C1=C[C@]2(CC)CCCN3CCc4c(n1c1ccccc41)[C@@H]32 [Vinpocetine],scaled lipid accumulation score,,inactive: 0.008
same,scaled lipid accumulation score,library stock concentration: 5.7 mM,inactive: 0.199 and inactive: ≤ 0
same,scaled lipid accumulation score,[1],inactive: ≤ 0 and inactive: 0.413
same,scaled lipid accumulation score,library stock concentration: 14.3 mM,inactive: ≤ -0.021
CC(=O)c1cc2c(cc1O)OC(C)(C)C=C2 [Eupatoriochromene],scaled lipid accumulation score,[1],inactive: 0.066
CCCCC/C=C\C\C=C/C=C/C=C/[C@@H](SC[C@H](NC(=O)CC[C@H](N)C(=O)O)C(=O)NCC(=O)O)[C@@H](O)CCCC(=O)O [Leukotriene C4],scaled lipid accumulation score,[7],inactive: ≤ -0.021
COc1cc(C(=O)NC2CCCNC2)cc(OC)c1OC (configuration not stated) [Troxipide],scaled lipid accumulation score,[5],inactive: ≤ 0
same,scaled lipid accumulation score,[1],inactive: ≤ -0.001
O=c1c2sc(-c3ccc(F)cc3)cc2ncn1Cc1nc2ccccc2[nH]1,scaled lipid accumulation score,[1],active: 0.756
COC(=O)c1c(-c2cc(OC)c(OC)c(OC)c2)c2ccnc(OCc3ncccn3)c2c(=O)n1Cc1ccnc(C)c1 [T 0156 hydrochloride],scaled lipid accumulation score,[1],inactive: ≤ -0.006
c1ccc(N2CCN(Cc3nc4ccccc4[nH]3)CC2)nc1 [ABT 724 trihydrochloride],scaled lipid accumulation score,[1],inactive: ≤ -0.001
C[C@]12CC[C@@H]3c4ccc(O)cc4CC[C@H]3[C@@H]1CCC2=O [Estrone],scaled lipid accumulation score,,inactive: ≤ 0
same,scaled lipid accumulation score,[5],inactive: ≤ 0
same,scaled lipid accumulation score,[1],inactive: ≤ 0 and inactive: ≤ -0.013
"CCCCC[C@H](O)/C=C/[C@H]1[C@H](O)CC(=O)[C@@H]1CCCCCCCCC(=O)O [1a,1b-dihomo Prostaglandin E1]",scaled lipid accumulation score,[6],inactive: ≤ 0
Nc1ncnc2c1c(-c1cccc(OCc3ccccc3)c1)cn2C1CC(CN2CCC2)C1 (configuration not stated),scaled lipid accumulation score,[2],inactive: 0.167
same,scaled lipid accumulation score,[3],inactive: 0.351
same,scaled lipid accumulation score,[4],inactive: 0.67
same,scaled lipid accumulation score,[1],inactive: 0.657
c1cc(OCCN2CCCCC2)cc(-c2n[nH]c3ccc(-c4ncn[nH]4)cc23)c1,scaled lipid accumulation score,[1],active: 1.72
CCCCCCCCc1ccc(CCC(N)(CO)CO)cc1,scaled lipid accumulation score,[6],inactive: 0.527
CCCCCCCCc1ccc(CCC(N)(CO)CO)cc1 [Fingolimod (FTY720) HCl],scaled lipid accumulation score,[1],inactive: 0.376
CCCCCCCC/C=C\CCCCCCCC(=O)NCCc1ccc(O)c(O)c1 [N-Oleoyldopamine],scaled lipid accumulation score,[1],inactive: ≤ 0
CCCCCCCC/C=C\CCCCCCCC(=O)NCCc1ccc(O)c(O)c1 [N-Oleoyl Dopamine],scaled lipid accumulation score,[6],inactive: ≤ 0
O=Cc1cccc2[nH]ccc12 [4-formyl Indole],scaled lipid accumulation score,[6],inactive: ≤ 0
CN(C)[C@@H]1C(O)=C(C(N)=O)C(=O)[C@@]2(O)C(O)=C3C(=O)c4c(O)ccc(Cl)c4[C@@](C)(O)[C@H]3C[C@@H]12 [Chlortetracycline hydrochloride],scaled lipid accumulation score,,inactive: ≤ 0
same,scaled lipid accumulation score,[1],inactive: ≤ 0
O=C1OC2(c3ccc(O)cc3Oc3cc(O)ccc32)c2ccccc21 [Fluorescein],scaled lipid accumulation score,library stock concentration: 6 mM,inactive: 0.02
CC(=O)OCC1=C(C(=O)O)N2C(=O)[C@@H](NC(=O)CSc3ccncc3)[C@H]2SC1 [Cephapirin sodium],scaled lipid accumulation score,library stock concentration: 4.5 mM,inactive: ≤ -0.001
same,scaled lipid accumulation score,[1],inactive: ≤ 0
